# Test: Chemical stability and solubility of Meisenheimer complexes and methylated derivatives
# Details: in particular in the presence of atmospheric oxygen
smiles,measurement,value
C[C@H]1COC2(CCN(C3=NC(O)=C4CC(C(F)(F)F)=CC([N+](=O)[O-])=C4S3)CC2)O1 [Compound 5b],Stability of 5b in solution,Rapid oxidation occurred in solution

# — patent publication US11155542B2, “Antimicrobial compounds, their use for the treatment of mammalian infections and a new metabolic mechanism” (priority 2016, dated 2021)
